The text below walks through data of publication PMC5451543.

The chains behind the UniProt entries cited, without tags or fusion partners.
UniProt O00487: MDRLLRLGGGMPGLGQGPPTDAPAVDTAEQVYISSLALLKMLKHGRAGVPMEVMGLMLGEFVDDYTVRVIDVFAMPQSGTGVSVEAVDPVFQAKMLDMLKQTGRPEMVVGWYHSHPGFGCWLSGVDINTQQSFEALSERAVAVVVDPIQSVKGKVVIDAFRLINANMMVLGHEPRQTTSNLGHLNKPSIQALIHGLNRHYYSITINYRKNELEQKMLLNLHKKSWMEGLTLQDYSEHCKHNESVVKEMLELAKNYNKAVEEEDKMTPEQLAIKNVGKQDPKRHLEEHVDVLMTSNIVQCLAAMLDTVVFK
UniProt Q9BRP4: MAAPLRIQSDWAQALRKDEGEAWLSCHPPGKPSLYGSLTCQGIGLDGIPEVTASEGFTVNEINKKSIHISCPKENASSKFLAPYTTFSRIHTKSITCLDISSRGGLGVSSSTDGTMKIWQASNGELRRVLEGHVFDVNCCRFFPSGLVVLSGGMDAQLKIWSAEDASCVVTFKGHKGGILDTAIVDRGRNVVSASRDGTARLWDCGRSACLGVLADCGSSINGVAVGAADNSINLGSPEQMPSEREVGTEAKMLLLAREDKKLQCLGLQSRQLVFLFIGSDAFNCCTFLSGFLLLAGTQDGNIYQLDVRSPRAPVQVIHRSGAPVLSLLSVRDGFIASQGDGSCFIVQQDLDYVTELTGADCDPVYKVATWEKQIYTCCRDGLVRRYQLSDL
UniProt P55036: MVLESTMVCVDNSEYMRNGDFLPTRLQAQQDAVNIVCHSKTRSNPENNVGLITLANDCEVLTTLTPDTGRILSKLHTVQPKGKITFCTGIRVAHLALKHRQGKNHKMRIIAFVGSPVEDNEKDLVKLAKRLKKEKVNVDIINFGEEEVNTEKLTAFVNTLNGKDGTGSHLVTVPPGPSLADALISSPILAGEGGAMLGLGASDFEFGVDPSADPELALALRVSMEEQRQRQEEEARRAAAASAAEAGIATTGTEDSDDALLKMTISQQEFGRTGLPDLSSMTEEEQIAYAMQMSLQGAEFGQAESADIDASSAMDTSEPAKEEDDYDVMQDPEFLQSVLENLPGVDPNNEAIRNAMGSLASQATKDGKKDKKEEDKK
UniProt P35998: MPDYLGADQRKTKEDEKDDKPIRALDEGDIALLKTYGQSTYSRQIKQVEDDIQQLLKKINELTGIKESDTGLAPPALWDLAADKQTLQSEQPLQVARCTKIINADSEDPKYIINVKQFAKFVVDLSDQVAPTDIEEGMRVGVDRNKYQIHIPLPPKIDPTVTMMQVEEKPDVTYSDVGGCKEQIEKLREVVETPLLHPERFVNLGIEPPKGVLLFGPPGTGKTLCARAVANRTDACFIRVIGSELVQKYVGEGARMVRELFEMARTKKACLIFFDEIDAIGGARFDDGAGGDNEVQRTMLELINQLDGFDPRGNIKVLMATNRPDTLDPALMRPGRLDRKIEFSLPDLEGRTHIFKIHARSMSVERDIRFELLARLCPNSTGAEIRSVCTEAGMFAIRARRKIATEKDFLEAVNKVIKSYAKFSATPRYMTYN
UniProt Q16401: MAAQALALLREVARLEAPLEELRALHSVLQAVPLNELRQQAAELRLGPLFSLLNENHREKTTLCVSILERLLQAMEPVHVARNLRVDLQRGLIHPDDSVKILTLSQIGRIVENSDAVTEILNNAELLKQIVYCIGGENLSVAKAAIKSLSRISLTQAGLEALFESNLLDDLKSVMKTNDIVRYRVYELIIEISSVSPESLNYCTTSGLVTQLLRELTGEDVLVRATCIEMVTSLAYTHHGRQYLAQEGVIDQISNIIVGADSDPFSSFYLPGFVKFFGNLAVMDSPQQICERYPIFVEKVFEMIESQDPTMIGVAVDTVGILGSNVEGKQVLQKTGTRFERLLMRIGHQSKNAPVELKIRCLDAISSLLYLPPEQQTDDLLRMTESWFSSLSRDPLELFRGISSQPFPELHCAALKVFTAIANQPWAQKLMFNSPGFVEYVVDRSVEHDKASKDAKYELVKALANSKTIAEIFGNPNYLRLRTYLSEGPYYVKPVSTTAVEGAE
UniProt P62195: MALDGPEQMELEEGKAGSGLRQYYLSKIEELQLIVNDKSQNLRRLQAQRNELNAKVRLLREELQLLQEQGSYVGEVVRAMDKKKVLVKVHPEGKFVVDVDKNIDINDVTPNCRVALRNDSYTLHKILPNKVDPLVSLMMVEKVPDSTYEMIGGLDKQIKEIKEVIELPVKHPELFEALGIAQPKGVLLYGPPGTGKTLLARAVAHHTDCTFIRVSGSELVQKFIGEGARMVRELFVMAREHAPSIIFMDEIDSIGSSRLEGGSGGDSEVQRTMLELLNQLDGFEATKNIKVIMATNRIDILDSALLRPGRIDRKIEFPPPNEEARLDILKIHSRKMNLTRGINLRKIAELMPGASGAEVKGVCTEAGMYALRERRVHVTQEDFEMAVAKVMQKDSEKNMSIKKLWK
UniProt Q13200: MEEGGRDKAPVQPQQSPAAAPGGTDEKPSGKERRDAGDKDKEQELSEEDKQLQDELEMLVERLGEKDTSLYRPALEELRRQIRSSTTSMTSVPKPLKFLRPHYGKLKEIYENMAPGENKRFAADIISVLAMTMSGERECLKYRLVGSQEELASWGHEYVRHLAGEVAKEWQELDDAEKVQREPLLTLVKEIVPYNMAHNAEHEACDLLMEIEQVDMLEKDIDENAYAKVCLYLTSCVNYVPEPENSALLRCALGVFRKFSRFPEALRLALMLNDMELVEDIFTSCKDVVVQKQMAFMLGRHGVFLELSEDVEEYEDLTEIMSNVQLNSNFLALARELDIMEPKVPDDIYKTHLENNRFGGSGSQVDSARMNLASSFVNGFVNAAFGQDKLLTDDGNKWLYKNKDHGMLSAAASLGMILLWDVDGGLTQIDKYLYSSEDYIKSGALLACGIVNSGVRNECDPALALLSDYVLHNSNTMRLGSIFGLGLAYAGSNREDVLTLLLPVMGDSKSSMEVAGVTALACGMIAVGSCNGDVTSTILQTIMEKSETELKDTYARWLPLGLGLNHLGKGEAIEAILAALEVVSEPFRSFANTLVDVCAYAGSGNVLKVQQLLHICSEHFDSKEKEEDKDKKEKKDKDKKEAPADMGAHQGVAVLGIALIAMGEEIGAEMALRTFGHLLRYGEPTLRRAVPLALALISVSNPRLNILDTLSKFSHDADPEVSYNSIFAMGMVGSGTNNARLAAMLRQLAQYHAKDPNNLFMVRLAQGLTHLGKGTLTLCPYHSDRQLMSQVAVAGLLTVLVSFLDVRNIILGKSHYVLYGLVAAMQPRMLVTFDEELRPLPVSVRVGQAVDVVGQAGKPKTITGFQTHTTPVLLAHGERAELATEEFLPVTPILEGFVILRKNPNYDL
UniProt P62191: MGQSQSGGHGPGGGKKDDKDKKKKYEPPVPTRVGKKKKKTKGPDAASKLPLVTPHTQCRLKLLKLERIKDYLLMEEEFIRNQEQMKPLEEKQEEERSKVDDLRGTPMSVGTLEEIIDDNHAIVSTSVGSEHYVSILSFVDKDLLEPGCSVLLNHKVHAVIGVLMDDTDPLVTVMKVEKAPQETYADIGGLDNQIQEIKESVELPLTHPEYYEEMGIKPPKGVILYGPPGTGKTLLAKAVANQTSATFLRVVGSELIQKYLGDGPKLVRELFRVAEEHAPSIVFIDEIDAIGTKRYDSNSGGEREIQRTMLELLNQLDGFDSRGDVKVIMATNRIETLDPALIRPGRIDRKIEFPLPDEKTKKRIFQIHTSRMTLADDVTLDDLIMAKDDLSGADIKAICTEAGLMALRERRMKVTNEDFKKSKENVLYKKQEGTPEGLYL

For one experiment, the target named is T1, GST-UBLCP1 (human) (UniProt Q8WVY7).
T1 sequence: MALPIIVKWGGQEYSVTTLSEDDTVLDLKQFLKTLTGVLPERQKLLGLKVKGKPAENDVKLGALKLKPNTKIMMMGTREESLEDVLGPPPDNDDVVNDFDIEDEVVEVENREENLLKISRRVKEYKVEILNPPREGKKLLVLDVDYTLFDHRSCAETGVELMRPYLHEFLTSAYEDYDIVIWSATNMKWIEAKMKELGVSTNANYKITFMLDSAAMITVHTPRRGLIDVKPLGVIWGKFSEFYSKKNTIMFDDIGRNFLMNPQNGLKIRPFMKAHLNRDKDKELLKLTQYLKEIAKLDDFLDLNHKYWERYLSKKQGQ
The experiment is described as follows: pull-down; GST fusion protein purified from E. coli with in vitro translated FLAG-tagged protein from rabbit reticulocyte lysate; bound protein detected with anti-FLAG antibody; only the target purified.

The target in the next experiment is T2, GST-DDAA (human) (UniProt Q8WVY7).
T2 sequence: T1 sequence with D143A, D145A
The experiment is described as above.

The next experiment concerns the target HTBH-tagged Rpn11 (UniProt O00487). The experiment is described as follows: pull-down; streptavidin–agarose pull-down of HTBH-tagged Rpn11 from stable HEK293T cells co-transfected with FLAG-tagged subunits or chaperones and HA-UBLCP1 or HA-DDAA; western blot. (A western blot detects proteins with antibodies after separation by electrophoresis.)
The next experiment concerns the target T3, FLAG-p27 (human) (UniProt O00233).
T3 sequence: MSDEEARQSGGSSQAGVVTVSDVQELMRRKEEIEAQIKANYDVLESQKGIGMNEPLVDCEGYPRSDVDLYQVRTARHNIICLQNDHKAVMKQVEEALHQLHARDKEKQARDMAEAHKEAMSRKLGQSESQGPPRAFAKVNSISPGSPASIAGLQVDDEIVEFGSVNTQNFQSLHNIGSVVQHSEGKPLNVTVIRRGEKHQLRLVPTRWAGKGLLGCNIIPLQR
The experiment is described as follows: co-IP; HEK293T co-transfected with tagged proteins; FLAG lysis buffer (300 mM NaCl, 25 mM Tris–HCl pH 7.5, 2 mM EDTA, 1% Triton X-100); IP with anti-FLAG antibody, western blot; some panels with UBLCP1 knockout, siRpn1 or HA-Rpn1 overexpression.

The target in another experiment is FLAG-PAAF1 (human) (UniProt Q9BRP4). Described as above.
The target in the next experiment is FLAG-Rpn10 (human) (UniProt P55036). The description is as above.
A further experiment deals with T4, GST-UBL (human) (UniProt Q8WVY7).
T4 sequence: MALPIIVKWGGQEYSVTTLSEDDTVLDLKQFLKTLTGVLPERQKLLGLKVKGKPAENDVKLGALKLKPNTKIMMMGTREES
In words: pull-down; GST fusion protein purified from E. coli with in vitro translated FLAG-tagged protein from rabbit reticulocyte lysate; bound protein detected with anti-FLAG antibody; only the target purified.

A further experiment has as its target T5, GST-ΔUBL (human) (UniProt Q8WVY7).
T5 sequence: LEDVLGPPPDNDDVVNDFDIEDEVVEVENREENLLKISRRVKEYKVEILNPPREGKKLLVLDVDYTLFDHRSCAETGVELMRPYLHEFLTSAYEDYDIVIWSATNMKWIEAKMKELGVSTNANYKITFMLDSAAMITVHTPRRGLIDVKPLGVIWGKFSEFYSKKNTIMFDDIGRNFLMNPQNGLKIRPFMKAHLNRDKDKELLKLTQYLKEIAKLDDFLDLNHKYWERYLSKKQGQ
The experiment is described as above.

Experiment [1] deals with T6, endogenous UBLCP1 (human (endogenous in HEK293T)) (UniProt Q8WVY7).
T6 sequence: T1 sequence
The experiment is described as follows: co-IP; endogenous proteins; HEK293T lysates, IP with anti-UBLCP1 antibody or control rabbit IgG.

Numbering of substitutions follows the chain as printed. These are yes or no findings as the source states them, for the method shown. In cells and extracts the contact can be indirect. Some results given as binding are weak or reduced against the parent protein; the word gives no strength. For some assays here: Where a sequence is shown, tags or fusion partners need not be part of it.

As for “FLAG-Rpt1, in vitro translated (from UniProt P35998 1-433)”, the binding result in the experiment with GST-UBLCP1 (human) and with GST-DDAA (human) was “binds weakly” throughout.
In the case of “FLAG-Rpt3, in vitro translated (from UniProt P43686 1-418)”, the binding result with GST-UBLCP1 (human) and in the experiment with GST-DDAA (human) was “binds weakly” throughout.
FLAG-Rpt1 (from UniProt P35998 1-433): the binding entry with HTBH-tagged Rpn11 is given as “binds”.
For HA-Rpt1 (from UniProt P35998 1-433), the binding entry in the experiment with FLAG-p27 (human), with FLAG-PAAF1 (human) and with FLAG-Rpn10 (human) was “binds” each time.
Turning to FLAG-S5b (from UniProt Q16401 1-504), the binding entry with HTBH-tagged Rpn11 was “binds”.
On to “FLAG-PAAF1, in vitro translated (from UniProt Q9BRP4 1-392)”, for which the binding entry with GST-UBLCP1 (human) and with GST-DDAA (human) was “binds weakly” each time.
For the substance “FLAG-Rpt6, in vitro translated (from UniProt P62195 1-406)”, the binding result with GST-UBLCP1 (human) and with GST-DDAA (human) was “binds weakly” each time.
For “FLAG-Rpn1, in vitro translated (from UniProt Q13200 1-908)”, the binding entry with GST-UBLCP1 (human) is listed as “binds”; with GST-UBL (human) it was “binds”; with GST-ΔUBL (human), “no binding”; in the experiment with GST-DDAA (human), “binds”.
For the substance “FLAG-Rpt2, in vitro translated (from UniProt P62191 1-440)”, the binding result with GST-UBLCP1 (human) and with GST-DDAA (human) was “binds weakly” throughout.
For the substance “endogenous Rpn1 (from UniProt Q13200 1-908)”, the binding entry in experiment [1] is given as “binds”.
